{"source": "PubChem BioAssay (NCATS)", "note": "This list was built around the results that the source calls inconclusive (neither active nor inactive); the mix of calls is not that of the screen. For some of these results: Potencies beside an inconclusive call are fits to weak or partial responses and may not hold up. Active and inactive are the calls of the source. The call rests on the fitted dose curve; in most records, active means well fitted curve in the direction sought with a large enough effect; inconclusive means small, poorly fitted or top-dose-only effect, or another doubt; inactive means no such curve, though single readings can be large; an effect the other way counts as inactive or inconclusive. Potency means the concentration at half of the fitted maximal effect; tags describe the fitted curve by direction and shape."}
{"experiment": "High Content Imaging Cell-Based qHTS for Inhibitors of the mTORC1 Signaling Pathway in MEF (Tsc2-/-, p53-/-) Cells (AID 2666);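 further: percent of cells scored positive for phospho-rpS6 Ser235/236 immunostaining by imaging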", "settings": "series mostly up to 38.3 µM", "procedure,_shortened": "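Tsc2-/-, p53-/- MEFs (empty-vector stable) grown in DMEM + 10% FBS were exposed to compounds for 24 hrs at 37 degree Celsius, fixed, and stained with Alexa-488 anti-phospho-rpS6 Ser235/236 plus Hoechst. Imaging gave the percentage of positive cells per well.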"}
{"smiles": "O=C1NC(=O)/C(=C/c2ccc3c(c2)OC(F)(F)O3)S1", "Potency": "inactive"}
{"smiles": "O=c1cc(N2CCOCC2)oc2c(-c3ccccc3)cccc12", "Potency": "active: 9.27 µM"}
{"smiles": "CC(C)(C)c1ccc(C(=O)CCCN2CCC(OC(c3ccccc3)c3ccccc3)CC2)cc1", "Potency": "active: 20.7 µM"}
{"smiles": "COCCOC(=O)C1=C(C)NC(C)=C(C(=O)OC/C=C/c2ccccc2)C1c1cccc([N+](=O)[O-])c1", "note": "(centres undefined)", "Potency": "inactive"}
{"experiment": "High Content Imaging Cell-Based qHTS for Inhibitors of the mTORC1 Signaling Pathway in MEF Cells (AID 2667)", "settings": "series mostly up to 38.3 µM", "procedure,_shortened": "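Tsc2-/-, p53-/- MEFs stably re-expressing WT Tsc2, grown in DMEM + 10% FBS, were treated with compounds for 24 hrs at 37 degree Celsius, fixed, and stained with Alexa-488 phospho-rpS6 Ser235/236 antibody plus Hoechst; results given as % positive cells.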"}
{"smiles": "O=C1c2ccccc2C(=O)c2c(NCCc3ccc(O)cc3)ccc(NCCc3ccc(O)cc3)c21", "Potency": "active: 4.65 µM"}
{"smiles": "CN(C)c1ccc(/C=C2\\C(=O)Nc3ccccc32)cc1", "Potency": "inconclusive: 0.0083 µM [activator, full curve, poor fit]"}
{"smiles": "CN1CCN(C2Cc3ccccc3Sc3ccc(Cl)cc32)CC1", "note": "(centres undefined)", "Potency": "inconclusive: 26.1 µM [falling, single point]"}
{"smiles": "OCc1cc(C(O)CNCCCCCCOCCCCc2ccccc2)ccc1O", "note": "(centres undefined)", "Potency": "inconclusive: 14.7 µM [falling, single point]"}
{"smiles": "CCc1cccc(N(C)C(N)=Nc2cccc3ccccc23)c1", "Potency": "inconclusive: 16.5 µM [falling, partial curve, poor fit]"}
{"smiles": "c1cnc2c(c1)ccc1cccnc12", "Potency": "active: 0.0465 µM"}
{"smiles": "CCN(CC)CCCC(C)Nc1c2ccc(Cl)cc2nc2ccc(OC)cc12", "note": "(centres undefined)", "Potency": "active: 14.7 µM"}
{"smiles": "O=Nc1ccc2oc(=O)ccc2c1", "Potency": "inconclusive: 5.21 µM [falling, partial curve, poor fit]"}
{"smiles": "O=C(Nc1ccc([N+](=O)[O-])cc1Cl)c1cc(Cl)ccc1O", "Potency": "active: 2.07 µM"}
{"smiles": "C[C@](N)(Cc1ccc(O)c(O)c1)C(=O)O", "Potency": "inconclusive: 23.3 µM [falling, single point]"}
{"smiles": "NC[C@@H]1O[C@H](C23CC4CC(CC(C4)C2)C3)Cc2c1ccc(O)c2O", "Potency": "inconclusive: 23.3 µM [falling, single point]"}
{"smiles": "Oc1ccc(/C=C/c2cc(O)cc(O)c2)cc1", "Potency": "inconclusive: 3.69 µM [falling, partial curve]"}
{"smiles": "COc1cc2nc(N3CCCN(C)CC3)nc(NC3CCN(Cc4ccccc4)CC3)c2cc1OC", "Potency": "inconclusive: 2.61 µM [falling, full curve, poor fit]"}
{"smiles": "C[C@H](Cc1ccccc1)Nc1ncnc2c1ncn2[C@@H]1O[C@H](CO)[C@@H](O)[C@H]1O", "Potency": "inactive"}
{"smiles": "O=C1C(SCCO)=C(SCCO)C(=O)c2ccccc21", "Potency": "active: 3.69 µM"}
{"smiles": "O=[N+]([O-])c1ccc2c(c1)S(=O)(=O)C=C2", "Potency": "active: 1.85 µM"}
{"smiles": "CCCCc1oc2ccccc2c1C(=O)c1cc(I)c(OCCN(CC)CC)c(I)c1", "Potency": "active: 13.1 µM"}
{"smiles": "CC(C)NCC(O)c1ccc(O)c(O)c1", "note": "(centres undefined)", "Potency": "inconclusive: 18.5 µM [falling, single point]"}
{"smiles": "O=Nc1c(-c2c(O)[nH]c3cc(Br)ccc23)[nH]c2ccccc12", "Potency": "active: 2.33 µM"}
{"smiles": "O=C(CCCN1CCC(O)(c2ccc(Cl)cc2)CC1)c1ccc(F)cc1", "Potency": "active: 23.3 µM"}
{"smiles": "N[C@@H](Cc1c[nH]c2ccc(O)cc12)C(=O)O", "Potency": "inconclusive: 18.5 µM [falling, single point]"}
{"smiles": "CC(=O)/C=C1\\C(=O)N(C)c2ccccc21", "Potency": "inconclusive: 14.7 µM [falling, single point]"}
{"smiles": "Oc1cc(O)cc(/C=C/c2ccc(O)c(O)c2)c1", "Potency": "inconclusive: 23.3 µM [falling, single point]"}
{"smiles": "O=C(Nc1nc2ccccc2n1CCN1CCOCC1)c1cccc([N+](=O)[O-])c1", "Potency": "inconclusive: 23.3 µM [falling, single point]"}
{"smiles": "O=c1cc(N2CCOCC2)oc2c(-c3ccccc3)cccc12", "Potency": "active: 0.414 µM"}
{"smiles": "CC(C)(C)c1ccc(C(=O)CCCN2CCC(OC(c3ccccc3)c3ccccc3)CC2)cc1", "Potency": "active: 4.65 µM"}
{"smiles": "O=C1NC(=O)/C(=C/c2ccc3nccnc3c2)S1", "Potency": "inconclusive: 14.7 µM [falling, single point]"}
{"smiles": "NC(CO)C(=O)NNCc1ccc(O)c(O)c1O", "note": "(centres undefined)", "Potency": "inconclusive: 23.3 µM [falling, single point]"}
{"experiment": "Cytometry Cell-Based qHTS for Inhibitors of the mTORC1 Signaling Pathway in MEF cells (AID 2668)", "settings": "mTORC1 pathway readout; series mostly up to 38.3 µM", "procedure,_shortened": "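Pathway inhibition in WT Tsc2-rescued Tsc2-/-, p53-/- MEFs is measured as the Alexa-488 phospho-rpS6 to propidium iodide intensity ratio after 24 hrs of compound at 37 degree Celsius. PI-stained cell number gives viability.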"}
{"smiles": "CCN(CC)C(=S)SSC(=S)N(CC)CC", "Potency": "inconclusive: 0.0656 µM [falling, full curve, poor fit]"}
{"smiles": "O=C1c2ccccc2C(=O)c2c(NCCc3ccc(O)cc3)ccc(NCCc3ccc(O)cc3)c21", "Potency": "active: 4.65 µM"}
{"smiles": "CN(C)c1ccc(/C=C2\\C(=O)Nc3ccccc32)cc1", "Potency": "inconclusive: 14.7 µM [falling, single point]"}
{"smiles": "CN1CCN(C2Cc3ccccc3Sc3ccc(Cl)cc32)CC1", "note": "(centres undefined)", "Potency": "inconclusive: 26.1 µM [falling, single point]"}
{"smiles": "S=C(Nc1ccccc1)Nc1nccs1", "Potency": "inconclusive: 5.85 µM [falling, partial curve]"}
{"smiles": "CCOC(=O)N1CCN(/[N+]([O-])=N/Oc2ccc([N+](=O)[O-])cc2[N+](=O)[O-])CC1", "Potency": "inconclusive: 2.93 µM [falling, partial curve, poor fit]"}
{"smiles": "OCc1cc(C(O)CNCCCCCCOCCCCc2ccccc2)ccc1O", "note": "(centres undefined)", "Potency": "inconclusive: 14.7 µM [falling, single point]"}
{"smiles": "CCc1cccc(N(C)C(N)=Nc2cccc3ccccc23)c1", "Potency": "inconclusive: 23.3 µM [falling, single point]"}
{"smiles": "c1cnc2c(c1)ccc1cccnc12", "Potency": "active: 4.65 µM"}
{"smiles": "CCN(CC)CCCC(C)Nc1c2ccc(Cl)cc2nc2ccc(OC)cc12", "note": "(centres undefined)", "Potency": "inconclusive: 26.1 µM [falling, single point]"}
{"smiles": "O=Nc1ccc2oc(=O)ccc2c1", "Potency": "inconclusive: 14.7 µM [falling, single point]"}
{"smiles": "O=C(Nc1ccc([N+](=O)[O-])cc1Cl)c1cc(Cl)ccc1O", "Potency": "active: 1.17 µM"}
{"smiles": "C[C@](N)(Cc1ccc(O)c(O)c1)C(=O)O", "Potency": "inconclusive: 16.5 µM [falling, single point]"}
{"smiles": "Oc1ccc(O)cc1", "Potency": "inconclusive: 14.7 µM [falling, single point]"}
{"smiles": "NC[C@@H]1O[C@H](C23CC4CC(CC(C4)C2)C3)Cc2c1ccc(O)c2O", "Potency": "inconclusive: 16.5 µM [falling, single point]"}
{"smiles": "CSc1ccc2c(c1)C(N1CCN(C)CC1)Cc1ccccc1S2", "note": "(centres undefined)", "Potency": "inconclusive: 14.7 µM [falling, single point]"}
{"smiles": "Oc1ccc(/C=C/c2cc(O)cc(O)c2)cc1", "Potency": "inconclusive: 18.5 µM [falling, single point]"}
{"smiles": "COc1cc2nc(N3CCCN(C)CC3)nc(NC3CCN(Cc4ccccc4)CC3)c2cc1OC", "Potency": "active: 6.56 µM"}
{"smiles": "O=C1C(SCCO)=C(SCCO)C(=O)c2ccccc21", "Potency": "inconclusive: 1.31 µM [falling, partial curve]"}
{"smiles": "O=[N+]([O-])c1ccc2c(c1)S(=O)(=O)C=C2", "Potency": "inconclusive: 0.736 µM [falling, full curve]"}
{"smiles": "CCCCc1oc2ccccc2c1C(=O)c1cc(I)c(OCCN(CC)CC)c(I)c1", "Potency": "inconclusive: 26.1 µM [falling, single point]"}
{"smiles": "CC(C)NCC(O)c1ccc(O)c(O)c1", "note": "(centres undefined)", "Potency": "active: 13.1 µM"}
{"smiles": "O=Nc1c(-c2c(O)[nH]c3cc(Br)ccc23)[nH]c2ccccc12", "Potency": "active: 5.21 µM"}
{"smiles": "O=C(CCCN1CCC(O)(c2ccc(Cl)cc2)CC1)c1ccc(F)cc1", "Potency": "inconclusive: 23.3 µM [falling, single point]"}
{"smiles": "N[C@@H](Cc1c[nH]c2ccc(O)cc12)C(=O)O", "Potency": "inconclusive: 23.3 µM [falling, single point]"}
{"smiles": "CC(=O)/C=C1\\C(=O)N(C)c2ccccc21", "Potency": "inconclusive: 26.1 µM [falling, single point]"}
{"smiles": "Oc1cc(O)cc(/C=C/c2ccc(O)c(O)c2)c1", "Potency": "inconclusive: 23.3 µM [falling, single point]"}
{"smiles": "O=C(Nc1nc2ccccc2n1CCN1CCOCC1)c1cccc([N+](=O)[O-])c1", "Potency": "inconclusive: 14.7 µM [falling, single point]"}
{"smiles": "O=c1cc(N2CCOCC2)oc2c(-c3ccccc3)cccc12", "Potency": "active: 4.65 µM"}
{"smiles": "CC(C)(C)c1ccc(C(=O)CCCN2CCC(OC(c3ccccc3)c3ccccc3)CC2)cc1", "Potency": "inconclusive: 5.85 µM [falling, single point]"}
{"smiles": "O=C1NC(=O)/C(=C/c2ccc3nccnc3c2)S1", "Potency": "active: 16.5 µM"}
{"smiles": "NC(CO)C(=O)NNCc1ccc(O)c(O)c1O", "note": "(centres undefined)", "Potency": "inconclusive: 26.1 µM [falling, single point]"}
